# Test results as given in the supplement of paper PMC11246515.
# Test: total protein half-life in vivo (active degradation + dilution); higher = more stable protein
# [1] = E. coli NCM3722 delta-clpP delta-lon delta-hslV, growth: N-lim chemostat, doubling time 6 h
# [2] = E. coli NCM3722 delta-clpP, growth: N-lim chemostat, doubling time 6 h
# [3] = E. coli NCM3722 delta-hslV, growth: N-lim chemostat, doubling time 6 h
# [4] = E. coli NCM3722 delta-lon, growth: N-lim chemostat, doubling time 6 h
# [5] = E. coli NCM3722 delta-smpB, growth: N-lim chemostat, doubling time 6 h
# [6] = wild type E. coli NCM3722, growth: C-lim chemostat, doubling time 3 h
# [7] = wild type E. coli NCM3722, growth: C-lim chemostat, doubling time 6 h
# [8] = wild type E. coli NCM3722, growth: C-lim chemostat, doubling time 12 h
# [9] = wild type E. coli NCM3722, growth: N-lim chemostat, doubling time 6 h
# [10] = wild type E. coli NCM3722, growth: N-lim chemostat, doubling time 12 h
# [11] = wild type E. coli NCM3722, growth: P-lim chemostat, doubling time 6 h
# [12] = wild type E. coli NCM3722, growth: P-lim chemostat, doubling time 12 h
Sequence,total protein half-life in vivo [1] [h],total protein half-life in vivo [2] [h],total protein half-life in vivo [3] [h],total protein half-life in vivo [4] [h],total protein half-life in vivo [5] [h],total protein half-life in vivo [6] [h],total protein half-life in vivo [7] [h],total protein half-life in vivo [8] [h],total protein half-life in vivo [9] [h],total protein half-life in vivo [10] [h],total protein half-life in vivo [11] [h],total protein half-life in vivo [12] [h]
MMENYKHTTVLLDEAVNGLNIRPDGIYIDGTFGRGGHSRLILSQLGEEGRLLAIDRDPQAIAVAKTIDDPRFSIIHGPFSALGEYVAERDLIGKIDGILLDLGVSSPQLDDAERGFSFMRDGPLDMRMDPTRGQSAAEWLQTAEEADIAWVLKTYGEERFAKRIARAIVERNREQPMTRTKELAEVVAAATPVKDKFKHPATRTFQAVRIWVNSELEEIEQALKSSLNVLAPGGRLSIISFHSLEDRIVKRFMRENSRGPQVPAGLPMTEEQLKKLGGRQLRALGKLMPGEEEVAENPRARSSVLRIAERTNA,4.825 ± 0.021,5.08 ± 1.4,4.53 ± 0.21,5.15 ± 0.28,4.49 ± 0.4,3.25 ± 0.07,5.72 ± 0.67,9.675 ± 0.028,4.68 ± 0.47,7.5 ± 0.47,4.97 ± 0.17,10.4 ± 0.39
MQEQYRPEEIESKVQLHWDEKRTFEVTEDESKEKYYCLSMLPYPSGRLHMGHVRNYTIGDVIARYQRMLGKNVLQPIGWDAFGLPAEGAAVKNNTAPAPWTYDNIAYMKNQLKMLGFGYDWSRELATCTPEYYRWEQKFFTELYKKGLVYKKTSAVNWCPNDQTVLANEQVIDGCCWRCDTKVERKEIPQWFIKITAYADELLNDLDKLDHWPDTVKTMQRNWIGRSEGVEITFNVNDYDNTLTVYTTRPDTFMGCTYLAVAAGHPLAQKAAENNPELAAFIDECRNTKVAEAEMATMEKKGVDTGFKAVHPLTGEEIPVWAANFVLMEYGTGAVMAVPGHDQRDYEFASKYGLNIKPVILAADGSEPDLSQQALTEKGVLFNSGEFNGLDHEAAFNAIADKLTAMGVGERKVNYRLRDWGVSRQRYWGAPIPMVTLEDGTVMPTPDDQLPVILPEDVVMDGITSPIKADPEWAKTTVNGMPALRETDTFDTFMESSWYYARYTCPQYKEGMLDSEAANYWLPVDIYIGGIEHAIMHLLYFRFFHKLMRDAGMVNSDEPAKQLLCQGMVLADAFYYVGENGERNWVSPVDAIVERDEKGRIVKAKDAAGHELVYTGMSKMSKSKNNGIDPQVMVERYGADTVRLFMMFASPADMTLEWQESGVEGANRFLKRVWKLVYEHTAKGDVAALNVDALTENQKALRRDVHKTIAKVTDDIGRRQTFNTAIAAIMELMNKLAKAPTDGEQDRALMQEALLAVVRMLNPFTPHICFTLWQELKGEGDIDNAPWPVADEKAMVEDSTLVVVQVNGKVRAKITVPVDATEEQVRERAGQEHLVAKYLDGVTVRKVIYVPGKLLNLVVG,5.24 ± 0.23,4.9 ± 0.34,4.9 ± 0.43,5.36 ± 0.62,4.58 ± 0.11,3.15 ± 0.27,5.5667 ± 0.0052,11 ± 0.44,4.4 ± 0.07,7.83 ± 0.26,6.158 ± 0.0094,11.2 ± 0.63

# ± gives the standard deviation of the averaged measurements.
